Assay results: the supplement of paper PMC3334620
Whole data set: some 33,000 sequences, median “E-score (-0.5 to 0.5)” near -0.016, cut for the highest 2% near 0.31. This is one part of the list.

Molecular target: Cst6 (UniProt P40535)
Experiment: PBM E-score (8-mer binding enrichment) (E-score (-0.5 to 0.5)); higher = stronger / more preferred TF binding; most listed sequences are background and not binding sites
Settings: protein concentration: 200 nM; construct: GST-DNA-binding domain
Method in brief: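 For each ungapped eight-base word taken together with its reverse complement, the Universal PBM Analysis Suite assigned an E-score. Binding data came from GST-tagged yeast transcription factors, applied at about 100-200 nM, on universal all-10-mer Agilent arrays made double-stranded by primer extension. Fluorescent anti-GST marked bound protein, and scans were normalised with masliner.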

Sequence | PBM E-score
AAAGGTGT | -0.167
CAGGACTC | -0.158
CCCCAGAG | -0.311
ACCCACTC | -0.194
AATTGACT | 0.0154
CAAGTTTC | 0.0749
ACCATGCT | -0.0124
CTAGCTGC | -0.178
GACCAATA | 0.0449
AGTGCCAT | -0.0464
GCACTAGC | -0.193
CCGCCCTC | -0.198
GGCTGCTA | -0.113
CCGTCGGA | -0.114
AGAGCAGC | -0.186
TCCATTCA | 0.0114
CAACTCGG | -0.16
GACTGACC | -0.198
ACCCACAA | 0.105
ATTCAAAC | 0.141
ACGGGAGA | -0.181
ACAGGTTA | -0.0664
CCCAACCA | -0.0722
AGTAGTCG | -0.0308
TGCGTAAA | 0.218

Sequence | PBM E-score
TATGCTCA | 0.0949
ATGTCCAA | 0.0591
CCTTGCAA | -0.186
GCTGTGAA | -0.0683
ATAGTTGG | 0.00697
AGTCCGAA | -0.0265
CCCAAGGG | -0.385
ACCGGGAC | -0.184
GTGACGAA | 0.454
AATAAGAG | 0.055
AGGAGTAC | -0.228
AATTTTAT | 0.346
CACCATTC | 0.0213
ACCAATGA | 0.172
GCCGAAGC | -0.167
AGGTGCCG | 0.137
CCGTAGAG | -0.107
CGCTAAAC | 0.089
CAGTAAGC | -0.0334
ATGCCCAG | -0.177
CGGGCATC | -0.276
GATAATAA | 0.098
CGGAAGTA | -0.102
CCCCACCG | -0.208
GATATTGC | -0.0125

Sequence | PBM E-score
AGCCCCAG | -0.282
AATGAGCA | 0.126
GCGAAGAC | -0.202
CGTTCTTC | 0.151
GAAAACCC | -0.08
GTTCACCA | -0.0696
AATTCATC | -0.0426
CAACTCCG | -0.142
AGCTAAGC | -0.156
ATCCGCAA | -0.0389
AACGTAGA | 0.118
CTCTTGCC | -0.157
AACACTCC | -0.151
AAAGCTCC | -0.132
AACGGGTG | -0.104
CCCCGGCG | -0.254
ACCCGCTG | -0.177
CTCCGACC | -0.341
GAATGAAA | 0.225
CTTATAAG | -0.0263
ACTAGATG | 0.0271
CGGTGTCA | -0.0632
TCCGACAA | 0.0665
CCTGCCAC | -0.0293
CTTTTCGC | 0.0964

Sequence | PBM E-score
TCAAAACA | 0.211
AATTTGTC | 0.103
ATGCTCTA | -0.0844
TATAAGAA | 0.125
CGGGTGAG | -0.198
ATTCGTTG | 0.0893
GATGGGAC | -0.153
GATGTAAC | 0.341
ATGGTCTG | -0.0481
CATTCGAA | 0.0397
ATGCCGTC | 0.323
GCTTAATA | 0.0836
AAACGGGC | -0.101
TCACTCAA | 0.0959
GCTTACCC | -0.292
ATATTTCG | 0.186
AAGTATGC | -0.0449
AAGGCAGC | -0.11
ACATATTG | 0.137
CACCCGGG | -0.278
CCAGAAAG | 0.0375
CGTCAACA | 0.407
AGCTTAGA | -0.00737
AGGTGATA | -0.138
CAAGAGTG | -0.0823

Sequence | PBM E-score
TACGAAGA | -0.034
AGCTTACT | -0.0615
CCTGCTTC | -0.196
CATATGCA | 0.212
GGAAGGCC | -0.136
GTGCAAAC | -0.0316
ACCCAAAG | 0.0358
GTGTAGCA | -0.208
CGGGAGCC | -0.17
CCTGTCCG | -0.153
GAAGTCAC | 0.0776
CTCTCAAG | -0.14
ATTGTGCA | -0.0257
ATCGACTG | -0.0918
TATTTACA | 0.156
CTCCCCCC | -0.319
AGCTCTTC | -0.0782
ATTCGGAG | -0.0899
CCTTGTAG | -0.126
CATAATGA | 0.258
GGGCCCGA | -0.182
CGATGGTC | -0.1
CAGCAACA | 0.18
ATCAATCG | 0.211
AGGCACCC | -0.203

Sequence | PBM E-score
CCGGGCAC | -0.164
GGGAAGCA | -0.193
CGCCAGCC | -0.193
ACACTGGC | -0.164
CGGCGGAC | -0.155
ACGCCCCA | 0.0306
CTTCTTGC | 0.125
CGCGGCCG | 0.0311
GTGCTTCA | -0.00155
AATGTACG | 0.00127
AAGACAAT | 0.155
CCTTCTAC | -0.175
AGTATAGA | 0.0483
ACAGTTCC | -0.129
ATCTCGGC | -0.21
GCCCATTA | -0.131
CAAAAAAC | 0.201
GACAAACC | -0.0663
ACAATAAG | 0.128
GCAACTGC | 0.0204
CCAGAGAA | 0.0435
ACTTGGGG | -0.174
AATGCCCA | -0.102
CGTTCCAG | -0.102
TACAGAGA | -0.0264

Sequence | PBM E-score
TAAACTAA | 0.247
CGAAGAAA | 0.0601
AGTGATCC | -0.125
CGTCTTCA | 0.00389
ACGGGTGA | 0.0387
GCCCACGC | -0.238
CATAATTC | 0.203
ACGAGTCA | -0.0366
AAATGTAC | 0.0197
GACGACTA | -0.0689
ACACTATC | 0.0871
TCACACCA | 0.183
CCTCTCCA | -0.382
CAGAATGC | -0.0407
AGCCGGTC | -0.193
GATCCACA | -0.098
AAATTCCG | 0.0499
TGCCGGAA | -0.0641
GCTGTTTA | 0.0917
GATATGCC | -0.0751
CGAGAACA | 0.00653
CCGTGGTC | -0.113
